Among all 44,000 compounds or so, about 340 (0.77%) were called active. This list was built around the results that the source calls inconclusive (neither active nor inactive); the mix of calls is not that of the screen. Calls come from the whole dose curve; as a rule, active = well fitted inhibition curve with a large enough effect; inconclusive = small, poorly fitted or top-dose-only effect; inactive = flat fitted curve, though single readings scatter. Potencies of inconclusive entries are left out as doubtful fits.
test: Acumen qHTS Assay for Inhibitors of the mTORC1 Signaling Pathway in MEF (Tsc2-/-, p53-/-) Cells: Sytravon; conditions: phospho-rpS6 immunofluorescence/PI, 24 h; series mostly up to 38.3 µM; activity change, negative = inhibition: at the top concentration; note: nearly all actives have a fitted effect of over 50% in size;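 for activity change, negative = inhibition: plate controls were DMSO for no effect and rapamycin for full effect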
In short: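 Cell-based qHTS: Tsc2-/- p53-/- MEF, 24 h cpd, 37 °C; fix/perm, anti-phospho-S6 Alexa-488 + PI; Acumen 488 nm scan; pS6/PI ratio, % positive cells; rapamycin 7.5 nM = inhibition ref; PI count = viability.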
Potency is the fitted concentration of half-maximal effect; tags give direction and shape of the fitted curve.

Compound | Potency | activity change, negative = inhibition
Cc1ccccc1CSCCNC(=O)C1CCN(S(=O)(=O)Cc2ccccc2)CC1 | inconclusive [falling, single point] | –
CCc1ccc(C(=O)CC2(O)C(=O)N(CCc3ccccc3)c3ccc(Cl)cc32)cc1 (centres undefined) | inconclusive [falling, single point] | –
FC(F)(F)c1cccc(Nc2c3c(nc4ccc(Cl)cc24)CCC3)c1 | active: 5.85 µM | –
CC(C)c1nn2c(=O)cc(COC(=O)c3ccc(NC(=O)c4cccs4)cc3)nc2s1 | inconclusive [falling, single point] | –
COc1ccccc1C(=O)N(c1ccc(C)cc1)S(=O)(=O)c1ccc(Cl)cc1 | – | inactive: 19.7%
O=C(NCc1cccc(F)c1)c1ccccc1NC(=O)c1nsc2ccccc12 | inconclusive [falling, single point] | –
Cc1nn2cc(-c3ccc(OC(C)C)cc3)nc2s1 | – | inactive: -16.6%
Cc1cccc(-c2nc3c(cnn3-c3ccccc3)c(=O)n2-c2ccc(Cl)cc2)c1 | – | inactive: -17.5%
CCCn1c(=N)c(C(=O)NCC2CCCO2)cc2c(=O)n3cc(C)ccc3nc21 (centres undefined) | – | inactive: -2.58%
CCCNC(=O)c1ccc2c(c1)N=C(CCC)c1ccccc1S2 | inconclusive [falling, full curve] | –
O=C(Cn1nc2c(cc1=O)CCCC2)NCc1ccc(Cl)cc1 | inconclusive [falling, single point] | –
CCN(C(=O)CN1C(=O)c2ccccc2Sc2ccc(C(=O)OC)cc21)c1cccc(C)c1 | inconclusive [falling, partial curve, poor fit] | –
CCCCNC(=O)CCC(=O)NNc1nc2ccccc2c2nc(C)nn12 | – | inactive: -14.1%
O=C(NCc1cccs1)c1ccc2c(c1)sc1nc(-c3ccc(F)cc3)cn12 | inconclusive [falling, partial curve, poor fit] | –
CN(Cc1nc(-c2ccc(Cl)cc2)no1)S(=O)(=O)c1ccccc1 | inconclusive [falling, partial curve, poor fit] | –
CC(C)c1ccc(C2CC(=O)Nc3cc4c(cc32)OCCO4)cc1 (centres undefined) | inconclusive [falling, single point] | –
CCc1ccc(NC(=O)CC(NCc2cccnc2)C(=O)O)cc1 (centres undefined) | inconclusive [activator, single point] | –
COc1cccc(NC(=O)Cn2c(=O)oc3cc(S(=O)(=O)N4CCCCC4)ccc32)c1 | – | inactive: -0.0361%
Cc1cccc(OC(=O)c2cc(-c3ccc(C)c(C)c3)on2)c1 | – | inactive: -0.637%
O=C1CCSC2(C(=O)N(Cc3ccc(F)cc3)c3ccccc32)N1c1ccc(Cl)cc1 (centres undefined) | inconclusive [falling, single point] | –
O=C(CSc1n[nH]c(-c2ccc(F)cc2)n1)NCc1ccccc1Cl | inconclusive [falling, single point] | –
COc1ccc(C(=O)CC2(O)C(=O)N(Cc3cccc(C(F)(F)F)c3)c3ccccc32)cc1 (centres undefined) | inconclusive [falling, single point] | –

Compound | Potency | activity change, negative = inhibition
Cc1ccc(C)c(N2CCN(CCCNC(=O)c3cnn(-c4ccc(F)cc4)c3C3CCN(C(=O)OC(C)(C)C)CC3)CC2)c1 | inconclusive [falling, single point] | –
O=C(CCS(=O)(=O)c1ccccc1)N(Cc1cccnc1)c1nc2ccc(F)cc2s1 | inconclusive [falling, single point] | –
COc1cccc(Cc2nc3ccccc3nc2SCC(=O)N2CCCc3ccccc32)c1 | inconclusive [falling, partial curve, poor fit] | –
O=S(=O)(c1ccc(Cl)cc1)c1nc(-c2ccco2)oc1SCc1ccccc1F | inconclusive [falling, single point] | –
COc1ccc(C)cc1NC(=O)Nc1cccc(-c2noc(C)n2)c1 | inconclusive [falling, single point] | –
Cc1noc(/C=C/c2ccccc2F)c1S(=O)(=O)N1CCC(C(=O)N2CCOc3ccccc32)CC1 | – | inactive: 5.52%
Cc1ccc2[nH]c(=O)c3cc(C(=O)NCCCN4CCC(C)CC4)sc3c2c1 | active: 3.29 µM | –
CCCCN1C(=O)C(O)(CC(=O)c2ccc(C)cc2C)c2cc(Br)ccc21 (centres undefined) | inconclusive [falling, single point] | –
Cc1sc(-c2cc3c([nH]c2=O)CC(c2ccccc2)CC3=O)nc1-c1ccc(Cl)cc1 (centres undefined) | inconclusive [falling, full curve] | –
CCCCS(=O)(=O)c1oc(-c2ccc(F)cc2)nc1S(=O)(=O)c1ccc(C)cc1 | active: 4.14 µM | –
CCCOc1cccc(C(=O)Nc2cc(-c3ccccc3)no2)c1 | inconclusive [falling, partial curve, poor fit] | –
COc1ccc(C2c3cc(OC)c(OC)cc3CC(=O)N2c2ccc(C)c(F)c2)cc1 (centres undefined) | inconclusive [falling, partial curve, poor fit] | –
Cc1ccc(OCC(=O)Nc2ccccc2OCc2cc(=O)n3ccccc3n2)cc1C | inconclusive [falling, partial curve, poor fit] | –
Cc1cccc(Nc2nnc(-c3ccc(C)c(S(=O)(=O)N4CCN(C)CC4)c3)c3ccccc23)c1 | inconclusive [falling, full curve, poor fit] | –
CC(C)CCNC(=O)C(=O)Nc1c2c(nn1-c1ccc(Cl)cc1)CSC2 | inconclusive [falling, partial curve] | –
CCOC(=O)C(C)Sc1nc(-c2ccccc2)ccc1C#N (centres undefined) | inconclusive [falling, single point] | –
COc1ccccc1NC(=O)C1CCCN(c2ncnc3onc(-c4ccc(F)cc4)c23)C1 (centres undefined) | – | inactive: 0.56%
COc1cccc(NC(=O)CSc2c3c(nc4ccccc24)CCCC3)c1 | inconclusive [falling, single point] | –
NC(=O)CSc1nc2ccc(NC(=O)COc3ccccc3Cl)cc2s1 | inconclusive [falling, single point] | –
Cc1ccc(C)c(N2CCN(c3nc4ccc(C(=O)c5ccccc5)cc4n4cnnc34)CC2)c1 | inconclusive [falling, full curve, poor fit] | –
CCCC(=O)Nc1cccc(-c2cn3c(C)csc3n2)c1 | inconclusive [falling, single point] | –
CCc1ccc(CNC(=O)c2cnc3c(C)cccn3c2=O)cc1 | – | inactive: -0.0764%

Compound | Potency | activity change, negative = inhibition
CC(C)c1ccc(CNc2nc(-c3ccco3)nn2S(=O)(=O)c2ccc(F)cc2)cc1 | inconclusive [falling, partial curve, poor fit] | –
O=C(C1CC1)N1CCc2cc(Br)cc(S(=O)(=O)Nc3ccc(F)c(F)c3)c21 | – | inactive: 0%
CCOc1ccc(N(Cc2ccccc2)C(=O)c2nc(SC)ncc2Cl)cc1 | inconclusive [falling, partial curve, poor fit] | –
COc1cc(CNC(=O)c2ccc3nc(Cc4ccccc4)oc3c2)cc(OC)c1OC | inconclusive [falling, single point] | –
COc1cccc(C(=O)CC2(O)C(=O)N(Cc3ccccc3)c3ccccc32)c1 (centres undefined) | active: 14.7 µM | –
COc1ccc(OC)c(C2CC(=O)c3c([nH]c(C(=O)OCc4ccc(C)cc4)c3C)C2)c1 (centres undefined) | active: 6.56 µM | –
CCOc1ccc(CN2CCN(Cc3ccc4c(c3)c3ccccc3n4CC)CC2)cc1 | inconclusive [falling, single point] | –
Cc1ccc(-c2c(C(=O)N3CCN(c4ccc(F)cc4)CC3)oc(=O)c3ccccc23)cc1 | – | inactive: 2.42%
COc1cc(OC)c(OC)cc1CN1CCc2nc(N3CCN(C)CC3)ncc2C1 | inconclusive [activator, single point] | –
CCOc1ccc(C(=O)/C=C/c2cn(CC(O)CN3CCc4ccccc43)c3ccccc23)cc1 (centres undefined) | inconclusive [falling, partial curve, poor fit] | –
Cc1cccc2c1-c1sc(C(=O)NCCCN3CCN(c4ccccc4F)CC3)cc1CO2 | – | inactive: -24.6%
O=C(CCS(=O)(=O)c1nc(-c2ccc3c(c2)OCO3)cc(C(F)(F)F)n1)Nc1ccc(Br)cc1 | inconclusive [falling, single point] | –
COc1ccc(C(=O)Nc2ccc3nc4c(c(Nc5ccccc5OC)c3c2)CCCC4)c(OC)c1 | inconclusive [falling, full curve, poor fit] | –
O=C1CC(c2c(F)cccc2Cl)c2c(ccc3ccccc23)N1 (centres undefined) | inconclusive [falling, partial curve, poor fit] | –
Cc1ccc(CN2CCC(CNC(=O)Nc3ccc(C)c(C)c3)C2)cc1 (centres undefined) | inconclusive [falling, single point] | –
COc1ccc(C)cc1NC(=O)c1oc2ccc(S(=O)(=O)N3CCC4(CC3)OCCO4)cc2c1C | inconclusive [falling, single point] | –
CCN(CC)CCOC(=O)c1ccc(NC(=O)c2cc3c(s2)-c2ccccc2OC3)cc1 | inconclusive [falling, single point] | –
CCc1ccc(NC(=O)CN2C(=O)c3ccccc3Sc3ccc(C(=O)N4CCCC4)cc32)cc1 | – | inactive: 0.0893%
COC(=O)COc1ccc(-c2nnc(Nc3ccc(O)cc3)c3ccccc23)cc1 | inconclusive [falling, single point] | –
O=C(CSc1ncc(-c2ccccc2)[nH]1)Nc1ccccc1 | inconclusive [falling, partial curve, poor fit] | –

— PubChem BioAssay AID493208 (National Center for Advancing Translational Sciences (NCATS), 2011)
